# Test results published in the supplement of paper PMC10037445.
# In all, about 2,900 compounds were measured (“NF-kB SEAP reporter activity, fold change vs agonist alone”: median about 0.99, highest 2% from about 2.6 on). This is one part of the list.
# Tests used:
# RAW-Dual [1] = assay: NF-kB SEAP reporter activity, fold change vs agonist alone; higher = enhanced NF-kB activity; conditions: cytotoxicity flag (confluency mask): not cytotoxic
# How it was run: (§1)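 RAW-Dual macrophages were seeded in DMEM at 50,000 cells/well in 384-well plates, given 50 nL of library stock by pin tool, and given a PRR agonist 1 h later. Plates were held at 37 °C, 5% CO2 for 20 hours, after which supernatant was read for IRF by QuantiLuc luminescence and for NF-κB by QuantiBlue absorbance at 620 nm. Reporter activity is expressed as fold change over wells that received agonist alone. A well was called cytotoxic when IncuCyte confluency fell below 70% of agonist controls in both mask sets.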
# RAW-Dual [2] = assay: NF-kB SEAP reporter activity, fold change vs agonist alone; cytotoxicity flag (confluency mask): not cytotoxic; higher = enhanced NF-kB activity
# How it was run: as §1
# [3] = library stock concentration (final ~1000-fold dilution): 10 mM, agonist: Imiquimod (TLR7) […]
# [4] = library stock concentration (final ~1000-fold dilution): 10 mM, agonist: MPLA (TLR4) […]
# [5] = agonist: ODN 1826 (TLR9) 0.5 ug/mL
# [6] = agonist: Pam2CSK4 (TLR2/6) 0.1 ug/mL
# [7] = agonist: Pam3CSK4 (TLR2/1) 0.1 ug/mL
# [8] = library stock concentration (final ~1000-fold dilution): 10 mM water, agonist: Imiquimod (TLR7) […]
# [9] = library stock concentration (final ~1000-fold dilution): 10 mM water, agonist: MPLA (TLR4) […]
structure (smiles),measurement,setting,value
COc1ccc(C(CN(C)C)C2(O)CCCCC2)cc1 (centres undefined),NF-kB SEAP reporter activity,RAW-Dual [1]; [3],0.935
same,NF-kB SEAP reporter activity,RAW-Dual [1]; [4],0.991
COc1ccc(C(CN(C)C)C2(O)CCCCC2)cc1 (centres undefined) (library stock concentration (final ~1000-fold dilution): 10 mM),NF-kB SEAP reporter activity,RAW-Dual [2]; agonist: LPS (TLR4) 0.1 ug/mL,1.24
same,NF-kB SEAP reporter activity,RAW-Dual [2]; [5],0.874
same,NF-kB SEAP reporter activity,RAW-Dual [2]; [6],1.03
same,NF-kB SEAP reporter activity,RAW-Dual [2]; [7],1.02
CN(C)C(=O)Oc1cccc([N+](C)(C)C)c1 (library stock concentration (final ~1000-fold dilution): 10 mM water),NF-kB SEAP reporter activity,RAW-Dual [2]; agonist: LPS (TLR4) 0.1 ug/mL,1.46
same,NF-kB SEAP reporter activity,RAW-Dual [2]; [5],1.16
same,NF-kB SEAP reporter activity,RAW-Dual [2]; [6],1.24
same,NF-kB SEAP reporter activity,RAW-Dual [2]; [7],1.08
CN(C)C(=O)Oc1cccc([N+](C)(C)C)c1,NF-kB SEAP reporter activity,RAW-Dual [1]; [8],0.918
same,NF-kB SEAP reporter activity,RAW-Dual [1]; [9],1.04
COC(=O)C(N)CCCNC(=N)N[N+](=O)[O-].Cl (centres undefined) (library stock concentration (final ~1000-fold dilution): 10 mM water),NF-kB SEAP reporter activity,RAW-Dual [2]; agonist: LPS (TLR4) 0.1 ug/mL,1.14
same,NF-kB SEAP reporter activity,RAW-Dual [2]; [5],1.2
same,NF-kB SEAP reporter activity,RAW-Dual [2]; [6],1.16
same,NF-kB SEAP reporter activity,RAW-Dual [2]; [7],1.06
COC(=O)C(N)CCCNC(=N)N[N+](=O)[O-].Cl (centres undefined),NF-kB SEAP reporter activity,RAW-Dual [1]; [8],0.928
same,NF-kB SEAP reporter activity,RAW-Dual [1]; [9],1.05
COc1ccc(C(=O)O)cc1OC (library stock concentration (final ~1000-fold dilution): 10 mM),NF-kB SEAP reporter activity,RAW-Dual [2]; agonist: LPS (TLR4) 0.1 ug/mL,0.902
same,NF-kB SEAP reporter activity,RAW-Dual [2]; [5],0.899
same,NF-kB SEAP reporter activity,RAW-Dual [2]; [6],0.948
same,NF-kB SEAP reporter activity,RAW-Dual [2]; [7],0.853
COc1ccc(C(=O)O)cc1OC,NF-kB SEAP reporter activity,RAW-Dual [1]; [3],0.927
same,NF-kB SEAP reporter activity,RAW-Dual [1]; [4],1.06
CN(C)C(=O)Oc1cccc([N+](C)(C)C)c1.COS(=O)(=O)[O-],NF-kB SEAP reporter activity,RAW-Dual [1]; [3],0.924
same,NF-kB SEAP reporter activity,RAW-Dual [1]; [4],1.01
CN(C)C(=O)Oc1cccc([N+](C)(C)C)c1.COS(=O)(=O)[O-] (library stock concentration (final ~1000-fold dilution): 10 mM),NF-kB SEAP reporter activity,RAW-Dual [2]; agonist: LPS (TLR4) 0.1 ug/mL,1.02
same,NF-kB SEAP reporter activity,RAW-Dual [2]; [5],0.966
same,NF-kB SEAP reporter activity,RAW-Dual [2]; [6],0.985
same,NF-kB SEAP reporter activity,RAW-Dual [2]; [7],1.04
CCCCC(C#N)(Cn1cncn1)c1ccc(Cl)cc1 (centres undefined) (library stock concentration (final ~1000-fold dilution): 10 mM),NF-kB SEAP reporter activity,RAW-Dual [2]; agonist: LPS (TLR4) 0.1 ug/mL,1.07
same,NF-kB SEAP reporter activity,RAW-Dual [2]; [5],0.884
same,NF-kB SEAP reporter activity,RAW-Dual [2]; [6],1.02
same,NF-kB SEAP reporter activity,RAW-Dual [2]; [7],0.935
CCCCC(C#N)(Cn1cncn1)c1ccc(Cl)cc1 (centres undefined),NF-kB SEAP reporter activity,RAW-Dual [1]; [3],1.14
same,NF-kB SEAP reporter activity,RAW-Dual [1]; [4],1.18
CCc1c(C(=O)C(N)=O)c2c(OCC(=O)O)cccc2n1Cc1ccccc1,NF-kB SEAP reporter activity,RAW-Dual [1]; [3],0.909
same,NF-kB SEAP reporter activity,RAW-Dual [1]; [4],0.825
CCc1c(C(=O)C(N)=O)c2c(OCC(=O)O)cccc2n1Cc1ccccc1 (library stock concentration (final ~1000-fold dilution): 10 mM),NF-kB SEAP reporter activity,RAW-Dual [2]; agonist: LPS (TLR4) 0.1 ug/mL,0.927
same,NF-kB SEAP reporter activity,RAW-Dual [2]; [5],0.962
same,NF-kB SEAP reporter activity,RAW-Dual [2]; [6],1.02
same,NF-kB SEAP reporter activity,RAW-Dual [2]; [7],1.04
O=c1[nH]c2ccc(Cl)cc2c(NC2CN3CCC2CC3)c1-c1nc2ccccc2[nH]1 (centres undefined),NF-kB SEAP reporter activity,RAW-Dual [1]; [3],1.06
same,NF-kB SEAP reporter activity,RAW-Dual [1]; [4],0.846
O=c1[nH]c2ccc(Cl)cc2c(NC2CN3CCC2CC3)c1-c1nc2ccccc2[nH]1 (centres undefined) (library stock concentration (final ~1000-fold dilution): 10 mM),NF-kB SEAP reporter activity,RAW-Dual [2]; agonist: LPS (TLR4) 0.1 ug/mL,0.181
same,NF-kB SEAP reporter activity,RAW-Dual [2]; [5],1.22
same,NF-kB SEAP reporter activity,RAW-Dual [2]; [6],0.0861
same,NF-kB SEAP reporter activity,RAW-Dual [2]; [7],0.298
CN1C(=O)COc2c(C(=O)NC3CN4CCC3CC4)cc(Cl)cc21.Cl (centres undefined) (library stock concentration (final ~1000-fold dilution): 2 mM water),NF-kB SEAP reporter activity,RAW-Dual [2]; agonist: LPS (TLR4) 0.1 ug/mL,1.38
same,NF-kB SEAP reporter activity,RAW-Dual [2]; [5],1.05
same,NF-kB SEAP reporter activity,RAW-Dual [2]; [6],1.14
same,NF-kB SEAP reporter activity,RAW-Dual [2]; [7],1.21
CN1C(=O)COc2c(C(=O)NC3CN4CCC3CC4)cc(Cl)cc21.Cl (centres undefined),NF-kB SEAP reporter activity,"RAW-Dual [1]; library stock concentration (final ~1000-fold dilution): 2 mM water, agonist: Imiquimod (TLR7) […]",0.919
same,NF-kB SEAP reporter activity,"RAW-Dual [1]; library stock concentration (final ~1000-fold dilution): 2 mM water, agonist: MPLA (TLR4) […]",1.01
